Measurements as given in patent US5576436A, “Fluorescent ligands” (Pharmaceutical Discovery Corporation, priority 1994, dated 1996).

Molecular target: strychnine-insensitive glycine receptor associated with the N-methyl-D-aspartate complex
Assay: Radioligand ([^3 H]5,7DCKA) binding, strychnine-insensitive glycine receptor

| SMILES | IC50 (read-out: IC50 versus radioligand ([^3 H]5,7DCKA) binding, [^3 H]5,7DCKA) | activity for the strychnine-insensitive glycine receptor (result in words) | Ki (read-out: Radiolig. Kd:Ki, Table I) |
| --- | --- | --- | --- |
| O=C(NCCCCCCNC(=O)C1CCCN1c1ccc([N+](=O)[O-])c2nonc12)c1cc(O)c2c(Cl)cc(Cl)cc2n1 (stereo not drawn) [1-(5,7-dichloro-4-hydroxy-2-quinolinecarboxamido 6-aminohexyl-4-(prolyl)-7] | > 1000 nM | inactive | – |
| O=C(NCCCCCCNc1ccc([N+](=O)[O-])c2nonc12)c1cc(O)c2c(Cl)cc(Cl)cc2n1 [PDC 002.083] | – | – | 69 nM |
